In US20250387474A1 (MEDICENNA THERAPEUTICS, published 2025):

T1: human IL-2R beta (CD122) (human, UniProt P14784 27-239)
T1 construct: also called IL-2Rβ; IL2Rβ
T1 sequence (looked up): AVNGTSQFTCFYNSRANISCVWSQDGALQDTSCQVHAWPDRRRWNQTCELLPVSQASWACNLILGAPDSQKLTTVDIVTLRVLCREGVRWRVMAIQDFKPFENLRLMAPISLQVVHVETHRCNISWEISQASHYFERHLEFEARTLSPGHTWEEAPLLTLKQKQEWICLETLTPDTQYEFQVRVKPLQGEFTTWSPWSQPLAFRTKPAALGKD

T2: human IL-2R alpha (CD25) (human, UniProt P01589 22-213)
T2 construct: also called IL-2Rα; IL2Rα
T2 sequence (looked up): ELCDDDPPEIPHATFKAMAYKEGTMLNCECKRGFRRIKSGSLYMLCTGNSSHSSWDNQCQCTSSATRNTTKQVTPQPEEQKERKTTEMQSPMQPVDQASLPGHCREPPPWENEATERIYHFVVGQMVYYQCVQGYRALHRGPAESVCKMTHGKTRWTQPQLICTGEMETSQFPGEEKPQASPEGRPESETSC

T3: human IL-13Rα2 (human, UniProt Q14627 27-343)
T3 construct: also called Human IL-13 R alpha 2 Protein; IL-13 decoy receptor
T3 sequence (looked up): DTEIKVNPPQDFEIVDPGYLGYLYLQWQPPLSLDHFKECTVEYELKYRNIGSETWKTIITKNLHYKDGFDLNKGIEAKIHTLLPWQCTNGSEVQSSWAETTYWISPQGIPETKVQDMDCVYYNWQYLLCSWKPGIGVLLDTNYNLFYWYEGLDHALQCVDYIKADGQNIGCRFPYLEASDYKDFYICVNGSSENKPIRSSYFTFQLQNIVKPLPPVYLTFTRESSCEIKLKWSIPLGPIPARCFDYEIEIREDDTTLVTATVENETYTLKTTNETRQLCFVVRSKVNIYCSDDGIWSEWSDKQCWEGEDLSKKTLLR

T4: IL-2Rβγ on Jurkat IL2Rβγ bioassay cells (UniProt P14784 27-551; P31785 23-369, limits assumed)
T4 sequence (looked up) 1: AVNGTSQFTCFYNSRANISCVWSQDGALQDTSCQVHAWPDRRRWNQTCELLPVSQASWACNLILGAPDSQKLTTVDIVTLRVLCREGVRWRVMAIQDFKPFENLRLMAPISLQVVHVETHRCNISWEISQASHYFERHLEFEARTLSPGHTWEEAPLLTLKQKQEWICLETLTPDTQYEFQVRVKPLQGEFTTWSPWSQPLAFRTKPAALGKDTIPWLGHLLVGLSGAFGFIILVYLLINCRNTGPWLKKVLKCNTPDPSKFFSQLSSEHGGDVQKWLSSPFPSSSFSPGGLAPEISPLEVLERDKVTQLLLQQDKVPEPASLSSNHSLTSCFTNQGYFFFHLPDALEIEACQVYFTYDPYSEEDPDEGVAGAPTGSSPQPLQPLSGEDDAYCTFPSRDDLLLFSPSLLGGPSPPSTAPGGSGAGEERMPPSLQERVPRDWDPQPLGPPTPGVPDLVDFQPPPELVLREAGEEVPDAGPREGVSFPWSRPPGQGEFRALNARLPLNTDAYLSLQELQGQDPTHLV
T4 sequence (looked up) 2: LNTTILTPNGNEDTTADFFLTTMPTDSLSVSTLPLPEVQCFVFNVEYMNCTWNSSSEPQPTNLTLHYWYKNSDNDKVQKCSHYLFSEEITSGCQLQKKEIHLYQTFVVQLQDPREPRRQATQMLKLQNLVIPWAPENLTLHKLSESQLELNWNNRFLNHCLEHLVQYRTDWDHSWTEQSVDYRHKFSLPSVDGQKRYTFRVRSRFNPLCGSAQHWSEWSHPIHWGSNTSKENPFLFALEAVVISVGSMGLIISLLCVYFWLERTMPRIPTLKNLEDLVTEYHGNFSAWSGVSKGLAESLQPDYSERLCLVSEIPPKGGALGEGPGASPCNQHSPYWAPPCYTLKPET

T5: CD25 on CTLL-2 cells (mouse, UniProt P01590 22-268)
T5 sequence (looked up): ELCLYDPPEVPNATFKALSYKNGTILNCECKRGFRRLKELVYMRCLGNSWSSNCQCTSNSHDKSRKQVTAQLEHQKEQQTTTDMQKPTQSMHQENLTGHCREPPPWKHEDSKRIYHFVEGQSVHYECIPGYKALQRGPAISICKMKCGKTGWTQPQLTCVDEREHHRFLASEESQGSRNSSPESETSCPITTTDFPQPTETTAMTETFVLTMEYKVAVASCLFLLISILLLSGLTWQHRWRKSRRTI

T6: human IL-13Rα1 (human, UniProt P78552 22-343)
T6 construct: also called Human IL-13 R alpha 1 Protein; IL-13 functional receptor
T6 sequence (looked up): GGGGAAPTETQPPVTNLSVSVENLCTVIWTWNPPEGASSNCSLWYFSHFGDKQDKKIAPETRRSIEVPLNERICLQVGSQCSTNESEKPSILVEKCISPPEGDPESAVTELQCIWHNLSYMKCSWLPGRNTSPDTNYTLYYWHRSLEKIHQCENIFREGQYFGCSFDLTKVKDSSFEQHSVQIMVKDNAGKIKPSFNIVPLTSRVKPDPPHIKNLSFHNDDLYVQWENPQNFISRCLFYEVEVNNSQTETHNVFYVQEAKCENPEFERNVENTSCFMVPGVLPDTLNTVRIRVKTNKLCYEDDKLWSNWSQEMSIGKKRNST

T7: mouse PD-1 on Mouse PD-1 T&U Effector Cells (mouse, UniProt Q02242 25-288)
T7 sequence (looked up): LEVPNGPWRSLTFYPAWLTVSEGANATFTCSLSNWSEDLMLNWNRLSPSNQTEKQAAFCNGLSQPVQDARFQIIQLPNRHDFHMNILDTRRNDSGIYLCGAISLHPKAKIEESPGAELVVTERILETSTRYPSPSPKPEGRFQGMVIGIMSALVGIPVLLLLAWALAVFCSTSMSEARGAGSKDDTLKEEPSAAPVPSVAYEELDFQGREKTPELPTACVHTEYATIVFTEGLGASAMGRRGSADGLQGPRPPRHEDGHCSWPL

T8: mouse PD-1 (mouse, UniProt Q02242 25-167)
T8 construct: also called mPD1
T8 sequence (looked up): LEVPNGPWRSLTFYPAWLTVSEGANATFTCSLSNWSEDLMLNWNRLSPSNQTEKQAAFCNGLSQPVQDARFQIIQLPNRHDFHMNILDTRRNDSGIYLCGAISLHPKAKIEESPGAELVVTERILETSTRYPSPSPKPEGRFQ


Legend:
human IL-2R beta (CD122) = target: T1, human IL-2R beta (CD122); experiment: SPR, construct on chip, receptor as analyte
human IL-2R alpha (CD25) = target: T2, human IL-2R alpha (CD25); experiment: SPR, concentration series 6.2 to 800 nM, set-up of Figure 89
human IL-13Rα2 = target: T3, human IL-13Rα2; experiment: SPR, construct on chip, receptor as analyte
[1] = target: T4, IL-2Rβγ on Jurkat IL2Rβγ bioassay cells; experiment: cell-based or functional assay
CD25 on CTLL-2 cells = target: T5, CD25 on CTLL-2 cells; experiment: cell-based or functional assay
human IL-13Rα1 = target: T6, human IL-13Rα1; experiment: SPR (multi-cycle kinetics), construct captured by anti-human IgG (Fc), receptor as analyte
[2] = target: T7, mouse PD-1 on Mouse PD-1 T&U Effector …; experiment: cell-based or functional assay
mouse PD-1 = target: T8, mouse PD-1; experiment: SPR, construct on chip, mouse PD1 as analyte

Row | Binder | Kd (human IL-2R beta (CD122)) [nM] | binding result (human IL-2R alpha (CD25)) | Kd (human IL-13Rα2) [nM] | Jurkat IL2Rβγ bioassay (luciferase), EC50 [1] [nM] | CTLL-2 cell proliferation, EC50 (CD25 on CTLL-2 cells) [nM] | binding result (human IL-13Rα1) | mouse PD-1/PD-L1 Blockade Bioassay, EC50 [2] [nM] | Kd (mouse PD-1) [nM]
1 | MDNA109FEAA-Fc-MDNA132.15 (2:1:1 KIH) (Fc fusion, also called MDNA109FEAA^C125-Fc-MDNA132^L39/Q111/R15 (2:1:1 KIH); BiSKIT with MDNA109FEAA) chain 1: APTSSSTKKTQLQLEHLLLDLQMILNGINNYKNPKLTRMLTAKFYMPKKATELKHLQCLEEALKPLEEVLNLAQSKNFHFDPRDVVSNINVFVLELKGSETTFMCEYADETATIVEFLNRWITFCQSIISTLTGGGGSGGGGSGGGGSDKTHTCPPCPAPELLGGPSVFLFPPKPKDTLMISRTPEVTCVVVDVSHEDPEVKFNWYVDGVEVHNAKTKPREEQYASTYRVVSVLTVLHQDWLNGKEYKCKVSNKALPAPIEKTISKAKGQPREPQVYTLPPCRDELTKNQVSLWCLVKGFYPSDIAVEWESNGQPENNYKTTPPVLDSDGSFFLYSKLTVDKSRWQQGNVFSCSVMHEALHNHYTQKSLSLSPGGGGGSGGGGSGGGGSPGPVPPSTAHRELIRELVNITQNQKAPLCNGSMVWSINLTAGMYCAALESLINVSGCSAIEKTQRMLSGFCPHKVSAGQFSSLHVTGRKIEVAQFVKDLLLHLKKLFKEGQFN chain 2: APTSSSTKKTQLQLEHLLLDLQMILNGINNYKNPKLTRMLTAKFYMPKKATELKHLQCLEEALKPLEEVLNLAQSKNFHFDPRDVVSNINVFVLELKGSETTFMCEYADETATIVEFLNRWITFCQSIISTLTGGGGSGGGGSGGGGS[sequence of human IgG1 Fc with changes not given] | 13 | no binding (tested: 800 nM) | 0.6 | 0.12 | – | – | – | –
2 | MDNA109FEAA-Fc-MDNA413 (2:1:2) (Fc fusion, also called MDNA109FEAA^C125-Fc-MDNA413^R39/Q111 (2:1:2)) APTSSSTKKTQLQLEHLLLDLQMILNGINNYKNPKLTRMLTAKFYMPKKATELKHLQCLEEALKPLEEVLNLAQSKNFHFDPRDVVSNINVFVLELKGSETTFMCEYADETATIVEFLNRWITFCQSIISTLTGGGGSGGGGSGGGGS[sequence of human IgG1 Fc with changes not given]GGGSGGGGSGGGGSPGPVPPSTAVRALIEELINITQNQKAPLCNGSMVWSINRTAGMYCAALESLINVSGCSAIEKTQDMLSGFCPHKVSAGQFSSLHVRSSKIEVAQFVKDLLFHLRTLFREGQFN | – | – | – | – | 0.053 | binds | – | –
3 | mAnti-PD1-MDNA132.15 (1:1 KIH) (other, also called Anti-mPD1-MDNA132.15 (1:1 KIH); anti-mPD1-MDNA132.15) heavy 1: EVQLQESGPGLVKPSQSLSLTCSVTGYSITSSYRWNWIRKFPGNRLEWMGYINSAGISNYNPSLKRRISITRDTSKNQFFLQVNSVTTEDAATYYCARSDNMGTTPFTYWGQGTLVTVSSASTKGPSVFPLAPSSKSTSGGTAALGCLVKDYFPEPVTVSWNSGALTSGVHTFPAVLQSSGLYSLSSVVTVPSSSLGTQTYICNVNHKPSNTKVDKKVEPKSCDKTHTCPPCPAPELLGGPSVFLFPPKPKDTLMISRTPEVTCVVVDVSHEDPEVKFNWYVDGVEVHNAKTKPREEQYASTYRVVSVLTVLHQDWLNGKEYKCKVSNKALPAPIEKTISKAKGQPREPQVYTLPPCRDELTKNQVSLWCLVKGFYPSDIAVEWESNGQPENNYKTTPPVLDSDGSFFLYSKLTVDKSRWQQGNVFSCSVMHEALHNHYTQKSLSLSPGGGGGSGGGGSGGGGSPGPVPPSTAHRELIRELVNITQNQKAPLCNGSMVWSINLTAGMYCAALESLINVSGCSAIEKTQRMLSGFCPHKVSAGQFSSLHVTGRKIEVAQFVKDLLLHLKKLFKEGQFN heavy 2: EVQLQESGPGLVKPSQSLSLTCSVTGYSITSSYRWNWIRKFPGNRLEWMGYINSAGISNYNPSLKRRISITRDTSKNQFFLQVNSVTTEDAATYYCARSDNMGTTPFTYWGQGTLVTVSSASTKGPSVFPLAPSSKSTSGGTAALGCLVKDYFPEPVTVSWNSGALTSGVHTFPAVLQSSGLYSLSSVVTVPSSSLGTQTYICNVNHKPSNTKVDKKV[sequence of human IgG1 Fc with changes not given] light: DIVMTQGTLPNPVPSGESVSITCRSSKSLLYSDGKTYLNWYLQRPGQSPQLLIYWMSTRASGVSDRFSGSGSGTDFTLKISGVEAEDVGIYYCQQGLEFPTFGGGTKLELKRTVAAPSVFIFPPSDEQLKSGTASVVCLLNNFYPREAKVQWKVDNALQSGNSQESVTEQDSKDSTYSLSSTLTLSKADYEKHKVYACEVTHQGLSSPVTKSFNRGEC | – | – | 0.6 | – | – | – | 6 | 87.7
